{"source": "PubChem BioAssay AID485364", "about": "(National Center for Advancing Translational Sciences (NCATS), 2010)", "note": "The whole screen tested about 360,000 compounds, of which about 11,000 (3.1%) were called active. Inconclusive results, whose numbers are uncertain, are shown with a selection of clear calls. Calls come from the whole dose curve; as a rule, active = well fitted inhibition curve with a large enough effect; inconclusive = small, poorly fitted or top-dose-only effect; inactive = no such curve, though single readings can be large or run the other way. No potency is given beside an inconclusive call; the fits are too rough. Potency is the fitted concentration of half-maximal effect; tags give direction and shape of the fitted curve.", "data": [{"molecular_target": "Schistosoma mansoni thioredoxin glutathione reductase (TGR) (UniProt Q962Y6)", "assay": "qHTS Assay for the Inhibitors of Schistosoma Mansoni Peroxiredoxins; note: nearly all actives have a fitted effect of over 60% in size", "details": "purified TGR, DTNB reduction, TNB absorbance 405 nm; series mostly up to 114 µM", "procedure,_shortened": "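TGR 20 nM + NADPH 100 uM (dispensed conc.), cpd preinc 15 min RT; start with NADPH (500 uM addition) then DTNB (15 mM addition). Kinetic TNB absorbance, 405 nm filter. Four-parameter Hill fit across titration.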", "values": [{"smiles": "CCC1C(O)=C(c2ccccn2)C(=N)N1c1ccccc1", "note": "(centres undefined)", "Potency": "inconclusive [inhibitor, partial curve]"}, {"smiles": "Cc1c(N=C2C=CC(=O)c3ccccc32)c(=O)n(-c2ccccc2)n1C", "Potency": "active: 12.6 µM"}, {"smiles": "CCCS(=O)(=O)c1c(S(=O)(=O)CCC)c2cc(CC)ccn2c1C(=O)OC", "Potency": "inactive"}, {"smiles": "CCOC(=O)c1c(C)[nH]c(O)c1C=Nc1ccc(C(F)(F)F)cc1", "Potency": "inconclusive [inhibitor, partial curve]"}, {"smiles": "CN(CC1CCOCC1)C(=O)CC1C(=O)NCCN1Cc1cccc(C(F)(F)F)c1", "note": "(centres undefined)", "Potency": "active: 44.7 µM"}, {"smiles": "Nc1nc(CN2CCN(Cc3ccccc3)CC2)nc(Nc2ccc3c(c2)OCCO3)n1", "Potency": "inconclusive [inhibitor, full curve, poor fit]"}, {"smiles": "Cc1cc(OC(=O)c2ccccc2Br)cc(=O)n1C", "Potency": "inconclusive [inhibitor, partial curve]"}, {"smiles": "Cc1ccccc1OCCOc1ccccc1C=C(C#N)C#N", "Potency": "active: 3.98 µM"}, {"smiles": "CN(CCc1ccccn1)C(=O)c1nn2c(C(F)(F)F)cc(-c3ccco3)nc2c1Cl", "Potency": "active: 44.7 µM"}, {"smiles": "Cn1c(=O)n(C)c2cc(N3CCCC3)c(NC(=O)c3cccc(F)c3)cc21", "Potency": "inconclusive [inhibitor, partial curve]"}, {"smiles": "CN1C(=O)/C(=C\\c2ccc(-c3ccccc3)o2)SC1=S", "Potency": "inconclusive [inhibitor, partial curve]"}, {"smiles": "Cc1nnc(N/N=C/c2ccccc2C(F)(F)F)n1N", "Potency": "inconclusive [inhibitor, full curve, poor fit]"}, {"smiles": "Cc1cc(OCc2cc(C(=O)NC(C)c3c(C)nn(C)c3C)no2)cc(C)c1Cl", "note": "(centres undefined)", "Potency": "inactive"}, {"smiles": "Nc1nc(SCc2ccc3c(c2)OCCO3)n[nH]1", "Potency": "inactive"}, {"smiles": "O=C(c1cc2ccccc2oc1=O)N(Cc1cccs1)Cc1ccccc1Cl", "Potency": "inactive"}, {"smiles": "COc1ccc(C(O)(CCN2CCCCC2)C2CCCCC2)cc1", "note": "(centres undefined)", "Potency": "active: 1.41 µM"}, {"smiles": "Cc1oc(-c2ccc(Cl)cc2)nc1CS(=O)CC(=O)NCCc1ccccc1", "note": "(centres undefined)", "Potency": "active: 22.4 µM"}, {"smiles": "CCOc1ccc2nc(Cl)c(/C=C/C(=O)c3ccco3)cc2c1", "Potency": "inconclusive [inhibitor, partial curve, poor fit]"}, {"smiles": "COc1cccc(NC(=O)Nc2ccncc2)c1", "Potency": "inactive"}, {"smiles": "COC(=O)c1ccc(-c2nc(-c3ccc(Br)o3)no2)cc1", "Potency": "inactive"}, {"smiles": "Cc1cc(=O)[nH]c(SCC(=O)NC2CCCCC2)n1", "Potency": "inactive"}, {"smiles": "CC1CC(=O)C(C2c3ccccc3CCN2C(=O)CCl)C(=O)C1", "note": "(centres undefined)", "Potency": "inconclusive [inhibitor, partial curve]"}, {"smiles": "CNc1nc(Cl)c(SC)c(NCc2cccc(OC)c2)n1", "Potency": "inactive"}, {"smiles": "COc1ccc(Cl)cc1NC(=S)NN1CCOCC1", "Potency": "active: 35.5 µM"}, {"smiles": "O=C(O)CCN1CCc2ccccc21", "Potency": "inconclusive [inhibitor, partial curve]"}, {"smiles": "Cc1ccc(C)c(NC(=O)C(Cc2ccccc2)n2cccc2)c1", "note": "(centres undefined)", "Potency": "inactive"}, {"smiles": "CN(Cc1cc(=O)n2ccsc2n1)C1CCCCC1", "Potency": "active: 31.6 µM"}, {"smiles": "Cc1onc(-c2ccccc2)c1C(=O)NCCCc1ccccc1", "Potency": "inactive"}, {"smiles": "CCn1c(Cc2c(C)[nH]c3ccccc23)nnc1SCC(=O)NCc1ccccc1", "Potency": "inconclusive [inhibitor, partial curve]"}, {"smiles": "COc1ccccc1CNC(=O)CCCCn1c(=O)c2ccccc2n(CC(=O)Nc2c(C)cc(C)cc2C)c1=O", "Potency": "inactive"}, {"smiles": "COc1ccc(Br)cc1/C=C/C(=O)NC(=S)Nc1ccc(Cl)c(C(=O)O)c1", "Potency": "inconclusive [inhibitor, full curve]"}, {"smiles": "CCOc1ccc2nc(NC(=O)NC3CCCCC3)sc2c1", "Potency": "inactive"}, {"smiles": "CC(=O)NCC(=O)N(c1c(C)n(C)n(-c2ccccc2)c1=O)C1(C(=O)NC2CCCC2)CCCCC1", "Potency": "inactive"}, {"smiles": "Nc1nc(Br)c2c(F)cccc2c1-c1ccccc1", "Potency": "inconclusive [inhibitor, partial curve]"}, {"smiles": "S=C(NCc1ccncc1)Nc1ccccc1", "Potency": "inactive"}, {"smiles": "CCS(=O)(=O)c1ccc(O)c(NC(=O)Nc2ccccc2OC)c1", "Potency": "inactive"}, {"smiles": "CCOC(=O)c1c(NC(=O)/C=C/C(=O)O)sc(C)c1-c1ccc(F)cc1", "Potency": "inactive"}, {"smiles": "CC(C)Cc1nc2cccnc2n1C1CCNCC1", "Potency": "inconclusive [inhibitor, partial curve]"}, {"smiles": "O=C(CCOc1ccccc1)Nc1ccccc1[N+](=O)[O-]", "Potency": "inconclusive [inhibitor, partial curve]"}, {"smiles": "O=S(=O)(NC1=NCCCCC1)c1ccc2ccccc2c1", "Potency": "inactive"}, {"smiles": "CCOc1ccc(OCC)c(NC(=O)CCn2cccc2)c1", "Potency": "inconclusive [inhibitor, full curve, poor fit]"}, {"smiles": "COc1ccccc1N1C(=O)C2ON(c3ccccc3)C(c3ccc(N(C)C)cc3)C2C1=O", "note": "(centres undefined)", "Potency": "active: 5.01 µM"}, {"smiles": "CN1CCC(N(C)C(=O)c2cc(=O)c3ccccc3o2)CC1", "Potency": "inconclusive [inhibitor, single point]"}, {"smiles": "COc1ccc2c(c1)CCc1c(C(=O)NCc3cccnc3)noc1-2", "Potency": "active: 28.2 µM"}, {"smiles": "Cn1c(=O)c(C(=O)COC(=O)c2cc(-c3ccco3)nc3ccccc23)c(N)n(CC2CC2)c1=O", "Potency": "active: 3.55 µM"}, {"smiles": "CCN(C(=O)Cn1ncc2c1-c1cc(C)ccc1OC2)c1cc(Cl)ccc1OC", "Potency": "inactive"}, {"smiles": "COc1cc(CN2CCN(Cc3ccc4cc(F)ccc4n3)CC2CCO)cc(OC)c1", "note": "(centres undefined)", "Potency": "active: 39.8 µM"}, {"smiles": "O=C1C=C(N(CCO)Cc2ccccc2)c2ccccc2C1=O", "Potency": "inconclusive [inhibitor, partial curve]"}, {"smiles": "O=C1Nc2ccccc2N2CCCC12", "note": "(centres undefined)", "Potency": "inconclusive [inhibitor, partial curve]"}, {"smiles": "O=C(Nc1cccc2cccc(NC(=O)c3ccco3)c12)c1ccco1", "Potency": "inconclusive [inhibitor, partial curve]"}, {"smiles": "CCC(NC(=O)CCl)c1ccc(C)cc1", "note": "(centres undefined)", "Potency": "inconclusive [inhibitor, partial curve]"}, {"smiles": "COc1cc(/C=C/C(=O)OCC(=O)Nc2cc(C)on2)ccc1OCC#N", "Potency": "inactive"}, {"smiles": "O=C(OCCN1CCOCC1)c1ccc(O)cc1", "Potency": "inactive"}, {"smiles": "N#Cc1c(N)nc(SCC(=O)C23CC4CC(CC(C4)C2)C3)c(C#N)c1-c1ccc(Cl)cc1", "Potency": "inconclusive [inhibitor, partial curve]"}, {"smiles": "CC(C)(C)NC(=O)/C(=C\\c1ccco1)NC(=O)c1ccco1", "Potency": "inconclusive [inhibitor, partial curve]"}, {"smiles": "CC(C)C(=O)Nc1ccc(N2CCCC2)cc1", "Potency": "active: 35.5 µM"}, {"smiles": "O=C(O)c1ccc(NC2CC(=O)N(Cc3ccccc3)C2=O)cc1", "note": "(centres undefined)", "Potency": "active: 28.2 µM"}, {"smiles": "O=C(COC(=O)c1ccc(NS(=O)(=O)c2cccs2)cc1)NCc1ccco1", "Potency": "active: 11.2 µM"}, {"smiles": "Cc1nnc(-c2ccco2)c2cn(-c3cccc(Br)c3)nc12", "Potency": "inconclusive [inhibitor, partial curve]"}, {"smiles": "O=C(OCc1ccccn1)c1ccc(COc2ccccc2Cl)o1", "Potency": "inactive"}, {"smiles": "O=C(Cc1ccccc1)N/N=C\\c1ccc(Br)o1", "Potency": "inconclusive [inhibitor, full curve, poor fit]"}, {"smiles": "Cc1ccc(-c2nnn(CC(=O)N(CCO)C(C(=O)NC(C)(C)C)c3ccncc3)n2)cc1", "note": "(centres undefined)", "Potency": "inconclusive [inhibitor, single point]"}, {"smiles": "S=C(NCc1ccncc1)NC1CCCC1", "Potency": "inconclusive [inhibitor, single point]"}, {"smiles": "Cc1cccc(C(=O)NC(=S)Nc2ccc3[nH]c(=O)[nH]c3c2)c1", "Potency": "inconclusive [inhibitor, partial curve]"}, {"smiles": "CCN1C(=O)[C@H]2[C@@H](c3ccc(-c4cccc(Cl)c4)cc3)N[C@@](Cc3ccccc3)(C(=O)OC)[C@H]2C1=O", "Potency": "inconclusive [inhibitor, partial curve]"}, {"smiles": "CSc1nnc(-c2ccc(NC(=O)CCc3ccccc3)cc2)n1C", "Potency": "inconclusive [inhibitor, partial curve]"}, {"smiles": "O=C(COC(=O)/C=C/c1ccco1)Nc1ncc(Cl)cc1Cl", "Potency": "active: 44.7 µM"}, {"smiles": "Cc1noc(/C=C/c2cccnc2)c1[N+](=O)[O-]", "Potency": "inconclusive [inhibitor, full curve]"}, {"smiles": "COc1ccc(S(=O)(=O)N2CCN(C3CC4CCC3C4)CC2)cc1", "note": "(centres undefined)", "Potency": "inactive"}, {"smiles": "COCC(=O)N1CCC(Oc2ccc(C(=O)NCc3cc(C)no3)cc2)CC1", "Potency": "inactive"}, {"smiles": "COc1ccc(CC(=O)Nc2c(C(=O)Nc3ccccc3F)oc3ccccc23)cc1", "Potency": "inactive"}, {"smiles": "CCS(=O)(=O)C1=NN2C(=N)/C(=C\\c3ccc(OC(=O)c4ccco4)c(OC)c3)C(=O)N=C2S1", "Potency": "inconclusive [inhibitor, partial curve]"}, {"smiles": "CC(C)c1cc(C(=O)N/N=C/C(Br)=C/c2ccccc2)n[nH]1", "Potency": "inconclusive [inhibitor, full curve]"}, {"smiles": "CN(C(=O)COC(=O)CCC(=O)c1ccccc1)c1c(N)n(Cc2ccccc2)c(=O)[nH]c1=O", "Potency": "inconclusive [inhibitor, partial curve]"}, {"smiles": "CC1(C)CC(N(Cc2cccs2)C(=O)c2ccco2)CCO1", "note": "(centres undefined)", "Potency": "inconclusive [inhibitor, partial curve]"}, {"smiles": "COC(=O)N1N=C(c2ccccc2)CC1(O)C(F)(F)F", "note": "(centres undefined)", "Potency": "inactive"}, {"smiles": "COC(=O)c1ccc(-n2nc(C(F)(F)F)c3c2-c2ccoc2CC3)cc1", "Potency": "inconclusive [inhibitor, partial curve]"}, {"smiles": "Cc1c(OC(C)C(=O)NCc2ccccn2)ccc2c3c(c(=O)oc12)CCCC3", "note": "(centres undefined)", "Potency": "inactive"}, {"smiles": "COc1ccc(-n2c(O)c(/C=C3\\C=Nc4ccc(Br)cc43)c(=O)[nH]c2=O)c(OC)c1", "Potency": "inconclusive [inhibitor, full curve]"}]}]}
